# From PubChem BioAssay AID1479 (National Center for Advancing Translational Sciences (NCATS), 2009)
# About 820 (0.29%) of roughly 280,000 compounds were called active. Inconclusive means that the source gave no clear call. Such entries were picked first, then a sample of the others. Calls come from the whole dose curve; as a rule, active = well fitted curve in either direction with a large enough effect; inconclusive = small, poorly fitted or top-dose-only effect; inactive = flat fitted curve, though single readings scatter. Potencies of inconclusive entries are left out as doubtful fits.
# Test: Total Fluorescence Counterscreen for Inhibitors of the Interaction of Thyroid Hormone Receptor and Steroid Receptor Coregulator 2
# Conditions: TRb/SRC2 Texas Red total fluorescence interference; series mostly up to 106 µM; fluorescence change, negative = quenching: at the top concentration
# Source text: NIH Molecular Libraries Probe Production Network [MLPCN]
# NIH Chemical Genomics Center [NCGC]
# Assay Provider: R. Kip Guy, St. Jude Children's Research Hospital
# Thyroid receptor (TR) regulates many homeostatic processes including basal metabolism, cardiovascular function, body weight, and lipid trafficking. TR modulators are potential therapeutics for obesity and hyperlipidemias but current thyroid analogs have undesirable side effects, particularly cardiac stimulation. To identify inhibitors that specifically prevent the interaction of TR with the steroid receptor […] 2 (SRC2), a fluorescence polarization assay was screened. This assay detects interaction of the ligand-binding domain of human TRb with a Texas Red labeled SRC2 peptide, corresponding to a 20 amino acid region of the nuclear receptor interaction domain (Arnold et al., 2006). Total fluorescence (555 nm excitation and 632 nm emission) was measured to identify potential fluorescent and light absorbing compounds. Such compounds may be artifacts that interfere with the fluorescence polarization assay.
# Arnold, L. A.; Estebanez-Perpina, E.; Togashi, M.; Shelat, A.; Ocasio, C. A.; McReynolds, A. C.; Nguyen, P.; Baxter, J. D.; Fletterick, R. J.; Webb, P.; Guy, R. K. A high-throughput screening method to identify small molecule inhibitors of thyroid hormone receptor coactivator binding. Sci STKE 2006, p 13.
# NCGC Assay Protocol Summary:
# For screening, 5 uL/well 0.6 uM TRb and 20 nM SRC2 Texas Red in protein buffer (20mM Tris hydrochloride, 100mM NaCl, 10% glycerol, 1mM EDTA, 0.01% NP-40, 1mM DTT, 1uM T3 and 5% DMSO) was dispensed into black solid 1536-well plates (Grenier) using a solenoid-based dispenser. Following transfer of 23 nL compound or DMSO vehicle by a pin tool, the plates were centrifuged 15 s at 1000 RPM and incubated 5 hr at ambient temperature. The plates were read by an Envision (Perkin Elmer) to detect fluorescence polarization of SRC2 Texas Red (555 nm excitation and 632 nm emission). Data were normalized to unbound (all components except TRb) and bound SRC2 Texas Red controls. Total fluorescence (TF) was calculated as follows: TF = S + 2P where S and P are fluorescence readings in the parallel and perpendicular channels, respectively.
# Keywords: NIH Roadmap, MLPCN, MLI, MLSMR, qHTS, NCGC, qHTS, thyroid hormone receptor, steroid receptor coactivator, fluorescence polarization
# % is set by controls: 0 for no effect and ±100 for the full control effect; potency is the fitted concentration of half-maximal effect; tags give direction and shape of the fitted curve or compound fluorescence and quenching.
SMILES,Potency,"fluorescence change, negative = quenching"
CCCOP(=O)(c1ccc(N(C)C)cc1)C(Nc1ccccc1)c1ccc(N(C)C)cc1 (stereo not drawn),active: 31.6 µM [quencher],–
O=C(c1ccc2c(c1)N(Cc1ccccc1F)C(=O)c1ccccc1S2=O)N1CCOCC1 (stereo not drawn),"inconclusive [falling, full curve, poor fit]",–
COc1cc(C(=O)OCCNC(=O)c2ccncc2)cc(OC)c1OC,–,inactive: -1.67%
Cc1c(C(=O)N/N=C/c2ccc(Cl)cc2)[nH]c2ccc(Cl)cc12,"inconclusive [falling, full curve, poor fit]",–
Cc1ccc(-c2cc3c(n2-c2ccc(C)cc2)CC(C)(C)CC3=O)cc1,"inconclusive [falling, partial curve, poor fit]",–
O=C(NCc1ccccc1)c1ccc(CSc2nc3cccnc3n2Cc2ccccc2F)cc1,"inconclusive [quencher, full curve]",–
Fc1ccc(NC(=S)Nc2cccc3cnccc23)cc1,–,inactive: -3.99%
CC(C)(C)OC(=O)N1CCC(c2nnc(SCc3ccccc3)o2)CC1,"inconclusive [falling, full curve, poor fit]",–
Cc1cc(NC(=O)COc2ccccc2)cc(-c2nc3ccccc3o2)c1O,"inconclusive [quencher, full curve]",–
CC(C)CN1CCc2nc(-c3ccccc3)c3c(c2C1)COC(C)C3 (stereo not drawn),"inconclusive [falling, partial curve, poor fit]",–
CCCCC1=CC2=C(c3ccco3)C(=O)C(C)(OC(=O)c3ccc(OC)cc3)C(=O)C2=CN1CCCCO (stereo not drawn),inactive,–
CC(=O)C1CCC2C3CCC4=CC(=O)CC[C@@]4(C)C3CC[C@]12C (stereo partly drawn),–,inactive: -1.34%
COc1cccc(OCc2cc(/C=N/Nc3ccc(C(=O)O)cc3)ccc2OC)c1,–,inactive: -5.94%
Clc1ccc2c(c1)-n1cc(-c3ccccc3)nc1CO2,active: 11.2 µM [quencher],–
C[C@H]1Cc2c(COc3ccccc3)nc3c(c2CO1)CN(S(=O)(=O)c1ccc(Cl)c2nonc12)CC3,–,inactive: -5.14% [at 11.2 µM]
Cc1nc2cc(-c3cccc(F)c3)nn2c(C)c1CCC(=O)NCCc1ccccc1,"inconclusive [quencher, full curve]",–
Cn1c(SCC(=O)N/N=C/C=C/c2ccccc2[N+](=O)[O-])nc2ccccc21,–,inactive: -6.5%
CCn1c(CNC(=O)c2ccc(OC)cc2)nnc1SCC(=O)Nc1cc(C)ccc1C,"inconclusive [falling, full curve, poor fit]",–
CCOc1cc(-c2nc(-c3ccc(-c4ccccc4)nc3OCC)no2)cc(OCC)c1OCC,"inconclusive [falling, full curve, poor fit]",–
Cc1ccc(N2C(=O)C3CC(c4ccccc4)=C4C5C=CC(C6C(=O)N(c7ccc(C)cc7)C(=O)C56)C4C3C2=O)cc1 (stereo not drawn),–,inactive: 0.0246%
CCc1ccccc1N1C(=O)CN(S(=O)(=O)CC)CC1(C)C(=O)NC1CCCCC1 (stereo not drawn),active: 17.8 µM [quencher],–
O=C(c1ccc(Cl)cc1)N1CCN(CCc2ccncc2)CC1,"inconclusive [falling, partial curve, poor fit]",–
O=C(COc1ccccc1)Nc1nnc(S(=O)(=O)Nc2ccccc2)s1,active: 0.0501 µM [quencher],–

SMILES,Potency,"fluorescence change, negative = quenching"
CCOc1cc(C2NC(=O)c3c(sc4c3CCN(C)C4)N2)ccc1OC(=O)c1ccc(Br)cc1 (stereo not drawn),"inconclusive [quencher, full curve]",–
CCOc1ccccc1NC(=O)CCc1c(C)nn(-c2ccc(N3CCCCC3)nn2)c1C,"inconclusive [quencher, partial curve]",–
Cc1cccc(OCCNc2cc(N3CCN(C)CC3)ccc2[N+](=O)[O-])c1,–,inactive: -0.6%
COc1ccc(OC)c(C2CC(=O)Oc3c2c(=O)n(C)c2ccccc32)c1 (stereo not drawn),"inconclusive [quencher, full curve]",–
CCCCC(=O)NC(c1ccccc1OC)c1ccc2cccnc2c1O (stereo not drawn),–,inactive: -0.323%
Fc1ccc(-c2csc(NC3=NCCC3)n2)cc1,–,inactive: -2.79%
O=C(CCNc1ccc(Br)cc1)c1cccc([N+](=O)[O-])c1,–,inactive: -2.58%
CC(=O)OCOC(=O)CNc1ccccc1OCCOc1ccccc1NCC(=O)OCOC(C)=O,"inconclusive [falling, partial curve, poor fit]",–
CCn1cc(S(=O)(=O)c2cc(C)cc(C)c2)c(=O)c2cc(F)c(N3CCCCC3)cc21,"inconclusive [quencher, full curve]",–
COc1cccc(/C=N/NC(=O)CCc2n[nH]c(=O)[nH]c2=O)c1O,"inconclusive [falling, full curve, poor fit]",–
Cc1ccc(C)c(N2CCN(c3nc4c(S(=O)(=O)c5ccccc5)nnn4c4ccc(Cl)cc34)CC2)c1,–,inactive: -2.33%
O=C(CSc1nc2ccccc2n1Cc1c(F)cccc1Cl)N1CCN(c2ccc(F)cc2)CC1,"inconclusive [quencher, full curve]",–
COc1ccc(CN(Cc2ccco2)c2cnc(S(C)(=O)=O)nc2C(=O)Nc2ccc(C)cc2C)cc1,"inconclusive [quencher, partial curve]",–
Cc1cccc(OCCSc2nc3ccc(NC(=O)COc4ccccc4)cc3s2)c1,"inconclusive [falling, full curve, poor fit]",–
Cc1ccc(-c2nn(-c3ccccc3)cc2C=C2C(=O)CC(C)(C)CC2=O)cc1,–,inactive: 0.167%
CC(=O)N1CCOc2cc(S(=O)(=O)N(C)Cc3ccccc3)c(Cl)cc21,"inconclusive [falling, full curve, poor fit]",–
Cc1csc2nc(COC(=O)CNC(=O)c3ccccc3Cl)cc(=O)n12,–,inactive: -1.33%
N=C1/C(=C/c2ccc(-c3cccc(C(=O)O)c3)o2)C(=O)N=C2SC=C(c3ccccc3)N12,"inconclusive [quencher, partial curve]",–
CCCCCC(=O)c1cc(CC(C(=O)OC)C(=O)OC)cc2cc(OC)c(OC)cc12,–,inactive: -2.62% [at 11.2 µM]
COC(=O)C(c1ccccc1Cl)N1CCc2sccc2C1 (stereo not drawn),"inconclusive [falling, full curve, poor fit]",–
CC(=O)Nc1ccc(SCC(=O)Nc2ccccc2-c2ccccc2)cc1,"inconclusive [falling, full curve, poor fit]",–
COc1ccc(C)cc1-n1cnc2cc(C(=O)NC3CCCC3)ccc21,"inconclusive [falling, partial curve, poor fit]",–
COc1ccc(-n2cccc2/C=C2\C(=N)N3N=C(c4ccco4)SC3=NC2=O)cc1,"inconclusive [quencher, full curve]",–

SMILES,Potency,"fluorescence change, negative = quenching"
COc1cc(OC)c(N(C)C(=O)c2sc3nc4n(c(=O)c3c2C)CCCC4)cc1Cl,–,inactive: 1.73%
O=C1C(=O)N(CNc2ccccn2)c2ccccc21,–,inactive: 3.21%
CN(C)C1C(=O)C(C(N)=O)=C(O)[C@@]2(O)C(=O)C3=C(O)c4c(O)ccc(Cl)c4C(O)[C@H]3C[C@@H]12 (stereo partly drawn),–,inactive: -3.56%
CCOC(=O)c1cn(CC)c2ccc(S(=O)(=O)N3CC(C)CC(C)C3)cc2c1=O (stereo not drawn),active: 44.7 µM [fluorescent],–
O=C(COCc1cc(-c2ccc3c(c2)OCO3)on1)N1CCN(c2ccccc2)CC1,"inconclusive [quencher, full curve]",–
Cc1cc(NC(=O)c2cc3cccc([N+](=O)[O-])c3[nH]2)ccc1F,"inconclusive [quencher, full curve]",–
CN(C)c1ncnc2c1NC1=C(S2)C(=NCCCC(=O)O)CC(C)(C)C1,–,inactive: 10.8%
CCN(CC)CCSc1nnc2c3cc(F)ccc3n(C)c2n1,"inconclusive [falling, full curve, poor fit]",–
CC(C)Cn1c(-c2cc([N+](=O)[O-])ccc2Cl)nc2c1c(=O)[nH]c(=O)n2Cc1ccccc1,"inconclusive [falling, full curve, poor fit]",–
Cc1ccn2c(=O)c(C(=O)NC(C)c3ccccc3)c(O)nc2c1 (stereo not drawn),–,inactive: 3.01%
Cc1c(C(=O)Nc2ccc(F)cc2)sc2nc[nH]c(=O)c12,"inconclusive [falling, partial curve, poor fit]",–
O=C(Cn1c(=O)c2cccn2c2ccc(F)cc21)N1CCN(c2ccc(F)cc2)CC1,"inconclusive [falling, full curve, poor fit]",–
Cc1cc2c(c(=O)o1)C(CCC1CCCCC1)C(C#N)=C(N)O2 (stereo not drawn),–,inactive: 1.33%
S=C(Nc1cccc(Cl)c1)Nc1ccc2cn[nH]c2c1,"inconclusive [falling, full curve, poor fit]",–
COc1ccccc1-c1cc2nc(C)c(CCC(=O)NCc3cccc(Cl)c3)c(C)n2n1,"inconclusive [falling, full curve, poor fit]",–
Nc1nc(CSc2nc3ccccc3s2)nc(Nc2ccccc2)n1,"inconclusive [falling, full curve, poor fit]",–
CN(C)C1CCN(CCCOc2ccc(-c3ccc(C#N)cc3)cc2)C1 (stereo not drawn),inactive,–
O=C(CCS(=O)(=O)c1cccc2nonc12)Nc1ccc(F)cc1F,–,inactive: -2.95%
CC(=O)c1c(O)cccc1O,"inconclusive [falling, partial curve, poor fit]",–
COC(=O)c1nc2ccc(N3CCOCC3)cc2c(C)c1C(=O)OC,–,inactive: -1.13%
CCOc1ccccc1CNc1nc2nc(C)c(CC(=O)OC)c(=O)n2[nH]1,"inconclusive [falling, full curve, poor fit]",–
COc1ccc(Cl)cc1C(=O)NCc1nc(-c2cccc(C)c2)no1,"inconclusive [falling, full curve, poor fit]",–
